What was measured:
human CCR7 (human) [1] = target: human CCR7 (human) (UniProt P32248); experiment: FACS on TPLL sample 1, membrane expressed CCR7; rank among the six variants (higher = better by the text)
human CCR7 (human) [2] = target: human CCR7 (human) (UniProt P32248); experiment: FACS on CLL sample 1, membrane expressed CCR7; rank among the six variants (higher = better by the text)
human CCR7 (human) [3] = target: human CCR7 (human) (UniProt P32248); experiment: FACS on CLL sample 3, membrane expressed CCR7; rank among the six variants (higher = better by the text)
human CCR7 (human) [4] = target: human CCR7 (human) (UniProt P32248); experiment: FACS on healthy donor cells, membrane expressed CCR7; rank among the six variants (higher = better by the text)
human CCR7 (human) [5] = target: human CCR7 (human) (UniProt P32248); experiment: FACS on TPLL sample 2, membrane expressed CCR7; rank among the six variants (higher = better by the text)
human CCR7 (human) [6] = target: human CCR7 (human) (UniProt P32248); experiment: FACS on CLL sample 2, membrane expressed CCR7; rank among the six variants (higher = better by the text)
human CCR7 (human) [7] = target: human CCR7 (human) (UniProt P32248); experiment: FACS on TPLL sample 3, membrane expressed CCR7; rank among the six variants (higher = better by the text)

UniProt P32248, sequence (P32248 25-378): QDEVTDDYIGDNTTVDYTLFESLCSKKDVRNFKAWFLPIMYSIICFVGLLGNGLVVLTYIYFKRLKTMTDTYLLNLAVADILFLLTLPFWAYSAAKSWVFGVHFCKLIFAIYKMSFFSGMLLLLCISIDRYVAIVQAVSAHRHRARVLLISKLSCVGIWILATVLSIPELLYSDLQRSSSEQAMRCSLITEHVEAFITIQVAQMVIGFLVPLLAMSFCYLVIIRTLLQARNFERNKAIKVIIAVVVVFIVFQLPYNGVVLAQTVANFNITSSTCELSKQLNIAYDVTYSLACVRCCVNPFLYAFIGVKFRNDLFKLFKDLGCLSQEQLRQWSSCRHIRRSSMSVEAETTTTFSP

| ranking of relative performance, FACS TPLL# 1 (human CCR7 (human) [1]) [rank] | ranking of relative performance, FACS CLL# 1 (human CCR7 (human) [2]) [rank] | ranking of relative performance, FACS CLL# 3 (human CCR7 (human) [3]) [rank] | ranking of relative performance, FACS HD (human CCR7 (human) [4]) [rank] | ranking of relative performance, FACS TPLL# 2 (human CCR7 (human) [5]) [rank] | ranking of relative performance, FACS CLL# 2 (human CCR7 (human) [6]) [rank] | ranking of relative performance, FACS TPLL# 3 (human CCR7 (human) [7]) [rank] | Binder |
| --- | --- | --- | --- | --- | --- | --- | --- |
| 2 | 2 | 1 | 1 | 2 | 1 | 1 | humanized anti-CCR7 antibody variant 21-17 (antibody, human IgG1) heavy: EVQLVESGGGLVKPGGSLRLSCAAPGLTFRDFAMSWVRQAPGKGLEWVSTISSGGFYTYYPDSVKGRFTISRDNAANSLYLQMNSLRAEDTAVYYCVRRAYRYDGTGDYSALDYWGQGTLVTVSS[human IgG1 constant region not given here] VL: DIQMTQSPSSLSASVGDRVTITCRASQDIGPSLNWYQQKPGKAPKRLIYATSNLDSGVPSRFSGSGSGTDFTLTISSLQPEDFATYYCLQFASSPLTFGQGTKVEIK |
| 1 | 1 | 2 | 2 | 1 | 2 | 2 | humanized anti-CCR7 antibody variant 21-AE (antibody, human IgG1) heavy: EVQLVESGGGLVKPGGSLRLSCAAPGLTFRDFAMSWVRQAPGKGLEWVSTISSGGFYTYYPDSVKGRFTISRDNAANSLYLQMNSLRAEDTAVYYCVRRAYRYDGTGDYSALDYWGQGTLVTVSS[human IgG1 constant region with changes not given here] VL: DIQMTQSPSSLSASVGDRVTITCRASQDIGPSLNWYQQKPGKAPKRLIYATSNLDSGVPSRFSGSGSGTDFTLTISSLQPEDFATYYCLQFASSPLTFGQGTKVEIK |

Reference: US20250092147A1 (PEPMAB B V, published 2025)
